Screen size: about 310,000 compounds; about 2,200 (0.71%) showed an effect of 50% or more. The effect is printed as a negative number. Some of the results follow.

The target of the test is human ether-à-go-go-related gene (hERG) potassium channel (human, UniProt Q12809). Briefly: primary screen, population patch clamp on CHO cells stably expressing hERG.
Chain of human ether-à-go-go-related gene (hERG) potassium channel (Q12809 whole entry, looked up): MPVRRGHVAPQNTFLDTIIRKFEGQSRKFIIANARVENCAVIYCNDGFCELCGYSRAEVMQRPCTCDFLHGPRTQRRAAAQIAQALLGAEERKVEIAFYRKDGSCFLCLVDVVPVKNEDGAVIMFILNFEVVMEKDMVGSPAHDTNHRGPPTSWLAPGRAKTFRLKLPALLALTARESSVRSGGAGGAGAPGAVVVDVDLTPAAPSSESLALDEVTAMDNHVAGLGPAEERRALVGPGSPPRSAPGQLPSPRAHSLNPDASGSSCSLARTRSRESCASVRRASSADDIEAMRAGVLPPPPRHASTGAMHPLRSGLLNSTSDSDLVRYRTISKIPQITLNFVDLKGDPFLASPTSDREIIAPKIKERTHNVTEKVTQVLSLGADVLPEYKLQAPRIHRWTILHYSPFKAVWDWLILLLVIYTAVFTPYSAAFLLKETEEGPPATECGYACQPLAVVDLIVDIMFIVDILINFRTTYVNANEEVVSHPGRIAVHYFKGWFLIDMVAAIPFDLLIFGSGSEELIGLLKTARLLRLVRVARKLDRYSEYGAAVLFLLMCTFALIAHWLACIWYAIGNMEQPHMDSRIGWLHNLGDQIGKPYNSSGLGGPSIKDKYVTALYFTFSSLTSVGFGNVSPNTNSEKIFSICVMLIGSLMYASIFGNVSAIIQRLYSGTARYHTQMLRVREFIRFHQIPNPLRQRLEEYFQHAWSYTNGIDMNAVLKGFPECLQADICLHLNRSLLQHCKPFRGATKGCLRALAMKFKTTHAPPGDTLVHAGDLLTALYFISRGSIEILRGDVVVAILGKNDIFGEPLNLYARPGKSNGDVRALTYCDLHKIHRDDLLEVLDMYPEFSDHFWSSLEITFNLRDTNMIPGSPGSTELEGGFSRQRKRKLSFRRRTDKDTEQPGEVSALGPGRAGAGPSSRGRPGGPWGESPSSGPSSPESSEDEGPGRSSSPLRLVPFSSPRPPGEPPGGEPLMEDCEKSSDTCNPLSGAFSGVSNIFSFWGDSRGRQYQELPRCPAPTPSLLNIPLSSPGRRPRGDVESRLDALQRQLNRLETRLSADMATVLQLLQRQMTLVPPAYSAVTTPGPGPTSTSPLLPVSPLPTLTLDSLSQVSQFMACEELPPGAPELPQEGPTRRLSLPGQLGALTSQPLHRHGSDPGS
For `COc1cccc(N2CCN(C(=O)c3oc4ccccc4c3NC(=O)CCc3cc(OC)no3)CC2)c1`, the “hERG current change (%, negative = inhibition) at 1uM” value was 14%. With `COc1ccc(C(=O)/C=C/c2ccc(OC)c(O)c2)c(F)c1` the figure was -0.356%; with `O=C(Nc1ccc(F)cc1)C1CCN(c2nnnn2-c2ccccc2)CC1`, -11.5%; with `COc1ccc(N2C(=O)CCC(C(=O)NCc3ccccn3)C2c2ccc(OC)c(OC)c2)cc1` (stereo not drawn), 3.01%. With `CCN(CC)CCNC(=O)C(C(=O)c1ccccc1)n1ccccc1=O` (stereo not drawn) the figure was -1.74%; with `O=C(Nc1ccc(Cl)c(S(=O)(=O)N2CCOCC2)c1)c1ccccn1`, -0.523%; with `CCN(CC)S(=O)(=O)c1ccc(-n2cnc3cc(C)c(C)cc32)nc1`, 14.1%.

As to `O=C(NC1CCCCC1)C(c1cccs1)N(C(=O)C(F)(F)F)c1ccccc1` (stereo not drawn), the “hERG current change (%, negative = inhibition) at 1uM” value turned out to be 1.09%.

`COc1ccccc1C(O)P(=O)(OC(C)C)c1ccc(N(C)C)cc1` (stereo not drawn): the “hERG current change (%, negative = inhibition) at 1uM” value is recorded as -6.33%.

With `Cc1csc(NC(C)c2nc3cc(C(F)(F)F)ccc3n2CCOCCO)n1` (stereo not drawn), the “hERG current change (%, negative = inhibition) at 1uM” value is given as -13.9%. With `COc1cc(NC(=O)[C@H]2CCCN2S(=O)(=O)c2cccc3cccnc23)cc(OC)c1OC` the figure was 8.67%; with `CNC(=O)CSc1nnc(NC(=O)C2CC(=O)N(c3ccccc3OC)C2)s1` (stereo not drawn), 7.27%; with `Cc1ccccc1N1CC(c2nc3ccccc3[nH]2)CC1=O` (stereo not drawn), 9.34%.

Regarding `Cc1ccccc1NS(=O)(=O)c1cc(C(=O)N2CCc3ccccc3C2)ccc1C`, the “hERG current change (%, negative = inhibition) at 1uM” value was found to be 22%.

As to `COc1cc(C2C3C(=O)N(Cc4ccccc4)C(=O)C3ON2c2ccccc2)cc(OC)c1O` (stereo not drawn), the “hERG current change (%, negative = inhibition) at 1uM” value amounted to 3.74%. With `CCc1ccc2oc(-c3cccc(N)c3)nc2c1` the figure was 5.75%; with `CC(C(=O)c1ccc(Br)cc1)[n+]1cccc(NC(=O)c2ccccc2)c1` (stereo not drawn), 1.86%; with `CC(C)(C)c1ccc(CN2N=C(/C=C/c3ccccc3)CCC2=O)cc1`, 11.3%.

As for `C#CCOc1ccc(/C=C2/C(=O)ON=C2C)cc1OCC`, the “hERG current change (%, negative = inhibition) at 1uM” value worked out at 17%.

For `CCOc1ccc(C(=O)NCC(=O)OCC(=O)Nc2ccc(C)c(S(=O)(=O)N(C)C)c2)cc1`, the “hERG current change (%, negative = inhibition) at 1uM” value is on record as -6.52%. With `CC(=O)C1=C(O)C(=O)N(c2ccc(Br)cn2)C1c1cccc([N+](=O)[O-])c1` (stereo not drawn) the figure was 14.9%; with `Cc1ccc(-c2nc3ccccc3s2)cc1NC(=O)c1cc(-n2cnnc2)ccc1Cl`, -2.5%; with `COc1ccc(NC(=O)NNC(=O)C(O)(c2ccccc2)c2ccccc2)cc1`, 3.47%. Take `C=CCN1C(=S)N[C@@H]2CS(=O)(=O)C[C@@H]21`: the “hERG current change (%, negative = inhibition) at 1uM” value was 9.05%. Regarding `CC(=O)c1ccc(S(=O)(=O)N2CCN(C(=O)C3CCCC3)CC2)cc1`, the “hERG current change (%, negative = inhibition) at 1uM” value is on record as 6.86%. With `CCOC(CNC(=O)c1ccc2c(c1)ncn2-c1ccc(F)c(F)c1)OCC` the figure was 3.06%; with `CC(C)=C1C2CCC1C1C(=O)N(NC(=O)COc3ccc(Cl)c(C)c3)C(=O)C21` (stereo not drawn), -0.967%. With `O=C(COc1ccccc1Cl)N1CCN(c2ccc(F)cc2)CC1` the figure was -1.65%; with `Cc1ccc(-n2c(-c3ccccc3)c[n+]3c2CCc2ccccc2-3)c(C)c1.[Br-]`, -82.5%; with `O=C(N/N=C/c1ccccn1)c1cccc(NC(=O)c2ccccc2Cl)c1`, 16.8%. On to `COc1ccc2c(c1)c(CC(=O)Nc1cccc(S(N)(=O)=O)c1)c(C)n2C(=O)c1ccc(Cl)cc1`, for which the “hERG current change (%, negative = inhibition) at 1uM” value came out at 4.6%. The result for `CNC(=O)COc1ccccc1C(=O)Nc1ccc2c(c1)oc1ccccc12` reads 13.7%.

On to `CCn1c(-c2ccccc2SC)n[nH]c1=S`, for which the “hERG current change (%, negative = inhibition) at 1uM” value stood at 10.7%. With `CN(C(=O)C1CCCO1)c1nnc(-c2ccccn2)s1` (stereo not drawn) the figure was 8.44%; with `CC(C)OC(=O)CSc1ncnc2c1cnn2-c1ccccc1`, 14.3%. The result for `COc1ccccc1CC(=O)Nc1cccc(C(=O)Nc2nccs2)c1` reads 10.9%. The result for `Cc1ccc(NC(=O)/C(=C/C=C/c2ccccc2)NC(=O)c2ccccc2)cc1` reads 1.32%. With `CCNC(=O)NC(=O)C(C)N1C(=O)NC(c2ccccc2)(c2ccccc2)C1=O` (stereo not drawn), the “hERG current change (%, negative = inhibition) at 1uM” value was -2.55%. In the case of `CSc1ncccc1C(=O)OCc1ccc([N+](=O)[O-])cc1`, the “hERG current change (%, negative = inhibition) at 1uM” value came to 13.2%.

`COc1ccc(NC(=O)c2ccc(-c3ccc([N+](=O)[O-])cc3)o2)cc1OC`: the “hERG current change (%, negative = inhibition) at 1uM” value is listed as -12.3%.

Turning to `O=C(c1ccncc1)N1CCN(S(=O)(=O)c2ccc3ccccc3c2)CC1`, the “hERG current change (%, negative = inhibition) at 1uM” value is listed as 6.93%.

In the case of `O=C(Nc1ccc(Cl)c(S(=O)(=O)N2CCOCC2)c1)c1ccccc1-c1ccc(C(F)(F)F)cc1`, the “hERG current change (%, negative = inhibition) at 1uM” value is recorded as 10.3%. The result for `Cc1ccc(C(=O)N/N=C\c2ccccn2)cn1` reads 11.8%; that for `Cc1ccc(F)c(NC(=O)/C(C#N)=C(\O)c2ccc(C(C)(C)C)cc2)c1`, 15%; that for `O=C(O)CCNS(=O)(=O)c1ccc2c(c1)Cc1ccccc1-2`, 10.9%. The result for `CC(=O)c1cc2c(cc1NC(=O)CCCC(=O)O)OCO2` reads 10.1%; that for `COc1cc(-c2nnc(SCC(=O)NC3CCCC3)n2C)cc(OC)c1O`, 32.3%; that for `CC(C)NS(=O)(=O)c1ccc(CCC(=O)Nc2ccc3c(c2)OCCO3)cc1`, 4.12%.

`CCCCCOc1ccc(C2C(C(C)=O)=C(C)Nc3ncnn32)cc1OC` (stereo not drawn): the “hERG current change (%, negative = inhibition) at 1uM” value was -13.3%. As for `CCc1nc2sc3c(c2c(=O)n1CCO)CCC3`, the “hERG current change (%, negative = inhibition) at 1uM” value was 15.2%. The result for `CCC(CC)NC(=O)Nc1cccc(C)c1C` reads -0.365%; that for `CCN1CCN(C(=O)c2cc(COc3c(C)cccc3C)on2)CC1`, 1.62%. With `CC(=O)c1cccc(NC(=O)N2CCCC2C(=O)NCc2ccc(C)cc2)c1` (stereo not drawn) the figure was -9.66%.

For the compound `COc1ccc(CSc2nncn2N)cc1Br`, the “hERG current change (%, negative = inhibition) at 1uM” value was found to be 1.24%. Consider `O=C(N/N=C/c1ccccc1OCC(=O)N1CCCC1)C(=O)Nc1ccccc1F`, for which the “hERG current change (%, negative = inhibition) at 1uM” value is recorded as 0.739%.

Regarding `CN(C)S(=O)(=O)c1ccc(C(=O)Nc2nnc(SCC(=O)NCC3CCCO3)s2)cc1` (stereo not drawn), the “hERG current change (%, negative = inhibition) at 1uM” value is 9.33%. Take `O=C(Nc1cccnc1)Nc1ccc(Br)cc1Cl`: the “hERG current change (%, negative = inhibition) at 1uM” value was determined as 6.6%. The result for `O=C(Cc1ccc(F)cc1)NC1CCSC1=O` (stereo not drawn) reads 13.6%; that for `CCn1c(SCC(=O)Nc2ccccc2OC)nc2ccccc2c1=O`, 1.38%; that for `CN(C)P1(N(C)C)=NC(C(F)(F)F)=NC(C(F)(F)F)=N1`, 17.7%. With `CNS(=O)(=O)c1cc(-c2nnc(N3CCOCC3)c3ccccc23)ccc1C` the figure was -0.938%.

With `Cc1nn(CC(=O)Nc2ccc3c(c2)nc(CN2CCCCC2)n3C)c(=O)c2ccccc12`, the “hERG current change (%, negative = inhibition) at 1uM” value was 11.1%.

For the compound `N/C(=N\OC(=O)/C=C/c1ccccc1Cl)c1ccncc1`, the “hERG current change (%, negative = inhibition) at 1uM” value is -1.32%. With `CCn1c(C(=O)O)c(CC(=O)NC2CCCCCC2)c2ccccc21` the figure was 9.57%; with `CSCc1c(C(=O)N2CCCc3ccccc32)oc2ccccc12`, 4.47%; with `O=C(COc1ccc2c(c1)OCO2)Nc1nccs1`, 17%. With `Cc1c(NC(=O)C(C)OC(=O)c2cccnc2)c(=O)n(-c2ccccc2)n1C` (stereo not drawn) the figure was 12.3%. The result for `Cc1cc(C)c(C)c(OCC(=O)N2CCN(c3ccccn3)CC2)c1` reads 2.13%; that for `CN(C)c1ncc(S(=O)(=O)c2ccccc2)c(-c2ccccc2Cl)n1`, 3.26%. As to `CCn1nc(C)cc1-c1n[nH]c(=S)n1N`, the “hERG current change (%, negative = inhibition) at 1uM” value stood at 17.4%. As to `COC(=O)c1sc2nc3c(c(-c4cccs4)c2c1N)CCCC3`, the “hERG current change (%, negative = inhibition) at 1uM” value is 6.19%. `COc1ccc(C(=O)CSc2nnc(Cn3nnc4ccccc43)n2C)cc1`: the “hERG current change (%, negative = inhibition) at 1uM” value is reported as -2.19%. Regarding `C/C=C\C=C/C(=O)Nc1cccc(C2=NOC3(C2)C[C@@H](C(N)=O)N(C(=O)/C=C/C=C\C)C3)c1` (stereo partly drawn), the “hERG current change (%, negative = inhibition) at 1uM” value stood at 20.7%. As to `Cc1ccc(-n2c(CCC(=O)O)ccc2-c2cccs2)cc1C`, the “hERG current change (%, negative = inhibition) at 1uM” value turned out to be 8.73%.

As for `CCOCCCNC(=O)C1CCN(S(=O)(=O)c2cc(Br)cc3c2N(C(=O)CC)CC3)CC1`, the “hERG current change (%, negative = inhibition) at 1uM” value stood at 3.7%.

Regarding `O=C1CCC(C(=O)N2CCCCCC2)CN1Cc1cccc(C(F)(F)F)c1` (stereo not drawn), the “hERG current change (%, negative = inhibition) at 1uM” value is given as -8.4%.

On to `COc1ccc(NC(=O)Cn2c(=O)n(Cc3ccco3)c(=O)c3ccccc32)cc1`, for which the “hERG current change (%, negative = inhibition) at 1uM” value was 15.7%. Turning to `CCn1cc(CN2CCC(n3nccc3NC(=O)CCCc3ccccc3)CC2)cn1`, the “hERG current change (%, negative = inhibition) at 1uM” value is -6.13%. The result for `O=c1nc2s/c(=C\c3ccco3)c(=O)n2nc1Cc1ccccc1` reads 15.3%; that for `CCn1c(C)nc2cc(-c3nc4n(n3)Cc3ccccc3-4)ccc21`, 8.12%. As to `COc1cc(NC(=O)Cc2ccc(F)cc2)cc(OC)c1OC`, the “hERG current change (%, negative = inhibition) at 1uM” value is 3.28%. The result for `CCS(=O)(=O)N1CCC(C(=O)Nc2cc([N+](=O)[O-])ccc2C)CC1` reads 10.8%; that for `CC(C)c1ccc(NC(=O)[C@H]2CSCN2C(=O)[C@@H]2CCC(=O)N2)cc1`, 26.3%. The result for `CSCc1nnc2n1-c1ccc(Cl)cc1C(c1ccccc1)=NC2` reads 4.89%; that for `CC1CN(C(=O)c2cc3ccccc3cc2O)CC(C)O1` (stereo not drawn), 10.3%; that for `Cl.O=C(CCN1CCN(CCO)CC1)N1c2ccccc2Sc2ccc(C(F)(F)F)cc21`, 4.6%. With `COC(=O)C1=C(CS(=O)(=O)c2ccc(OC)cc2)NC(=O)NC1c1ccccc1` (stereo not drawn) the figure was 13.8%.

For the origin of these results see article PMC4336329 (PLoS ONE, 2015).
